In US20090118188A1 (ACCELERON PHARMA, published 2009):

Target: T1, GDF-11 (UniProt O95390 299-407)
T1 sequence (looked up): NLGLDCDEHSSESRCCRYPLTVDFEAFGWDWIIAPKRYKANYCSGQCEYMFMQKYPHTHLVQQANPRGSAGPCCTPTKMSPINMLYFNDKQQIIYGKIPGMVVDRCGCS
Assay: cell-based or functional assay

GDF-11 signaling in the A-204 Reporter Gene Assay (pGL3(CAGA)12 luciferase), IC50: ~200 pM
B1: ActRIIa-hFc (Fc fusion)
chain: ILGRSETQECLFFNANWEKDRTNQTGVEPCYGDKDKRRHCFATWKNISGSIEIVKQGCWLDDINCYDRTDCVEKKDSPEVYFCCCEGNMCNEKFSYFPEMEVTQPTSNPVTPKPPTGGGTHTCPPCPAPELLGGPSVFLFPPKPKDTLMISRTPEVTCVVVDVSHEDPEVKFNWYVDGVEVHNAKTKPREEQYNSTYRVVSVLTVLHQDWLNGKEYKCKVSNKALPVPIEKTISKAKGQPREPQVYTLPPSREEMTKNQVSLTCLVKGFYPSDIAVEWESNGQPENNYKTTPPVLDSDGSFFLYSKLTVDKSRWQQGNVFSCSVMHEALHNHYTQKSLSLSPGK
